About 1,700 (3.3%) of roughly 52,000 compounds were called active. Cut-off read from the data, not from the text of the source: active = survival mostly below about 52% (no sharp cut-off); inactive = mostly above about 56%. This is one part of the list.
The molecules below were run on Wild type (assay: S. aureus survival, RN4220 and DeltatarO strains – OD600, teichoic acid synthesis inhibitors, primary screen (AID 463173)). Settings: S. aureus RN4220 wild type/DeltatarO growth, OD600, 18 h, stronger effect = lower value, screened at 18.75 µg/mL (by protocol).

Compound | survival
CCN(Cc1ccccc1)C(=O)c1cc2c(s1)-c1c(C)cccc1OC2 | inactive: 71%
Cc1ccc(Cl)cc1NC(=O)Cn1c(=O)n(Cc2ccc(C(=O)NCc3ccc4c(c3)OCO4)cc2)c(=O)c2ccccc21 | inactive: 96%
Cc1nn(CC(=O)Nc2ccccc2F)c(=O)c2c(C)n(-c3ccc(Cl)cc3)nc12 | inactive: 99%
O=c1c2cnn(-c3ccc(Cl)cc3)c2ncn1Cc1cccc(C(F)(F)F)c1 | inactive: 122%
COc1ccc(NC(=O)CSc2cc(-c3ccccc3)nc(C)n2)cc1 | inactive: 114%
CCN1CCN(c2c(S(=O)(=O)c3ccc(C)c(C)c3)cnc3ccc(F)cc23)CC1 | inactive: 70%
CCOc1ccc(-c2csc(/C(C#N)=C/c3ccc(Br)cc3)n2)cc1 | inactive: 71%
CCCn1c(NCc2ccc(N(CC)CC)cc2)nc2ccccc21 | active: 0%
CCCN(CCC)C(=O)Cn1c(=O)n(-c2ccc(OC)cc2)c(=O)c2ccc(C(=O)NCc3ccc(C)cc3)cc21 | inactive: 75%
CCC(=O)Nc1ccc2nc(SCCOc3ccc(C)cc3)sc2c1 | inactive: 92%
CCS(=O)(=O)c1ncc(N(Cc2ccc(F)cc2)Cc2ccco2)c(C(=O)Nc2cc(C)ccc2C)n1 | inactive: 84%
Cc1ccc2oc(-c3ccccc3C)nc2c1 | inactive: 125%
CCOC(=O)C1CCN(C(=O)CN2c3ccc(CC)cc3-c3ccccc3S2(=O)=O)CC1 | inactive: 113%
CN1CCN(c2nc3c(S(=O)(=O)c4ccccc4)nnn3c3ccsc23)CC1 | inactive: 98%
Cc1ccc(-n2c(SCC(=O)Nc3cccc(C)c3)nc3c(oc4ccccc43)c2=O)cc1 | inactive: 142%
CN(C)CCOC(=O)CC12CC3CC(C1)CC(CC(=O)OCCN(C)C)(C3)C2 | inactive: 84%
CCOC(=O)C1CCCN(C(=O)c2ccc(-n3ccc4ccccc43)s2)C1 (centres undefined) | active: -3%
COC(=O)c1c(C)oc2ccc(N(C(=O)c3ccncc3)S(=O)(=O)c3c(C)cc(C)cc3C)cc12 | inactive: 141%
O=C(NCc1ccccc1)c1nc(S(=O)(=O)Cc2ccccc2)ncc1Cl | inactive: 42%
CC(C)(C)c1ccc(C(=O)NC2(C(F)(F)F)C(=O)Nc3c2c(=O)[nH]c(=O)n3-c2ccccc2)cc1 (centres undefined) | inactive: 66%
Cc1cccn2c(=O)c3cc(C(=O)NCc4cccnc4)c(=N)n(CCCO)c3nc12 | inactive: 76%

Compound | survival
Cc1sc2ncn(CC(=O)N3CCN(c4ccc(Cl)cc4)CC3)c(=O)c2c1S(=O)(=O)N1CCN(c2ncccn2)CC1 | inactive: 103%
O=C(O)CCCc1nc2ccccc2s1 | inactive: 102%
Cc1ccc(Cn2c(SCC(=O)C(C)(C)C)nc3ccsc3c2=O)cc1 | inactive: 90%
CC1=Nc2cc(C(=O)NCCc3ccccc3)ccc2Sc2c(C)ccc(C)c21 | inactive: 80%
COc1ccc(NC(=O)Cn2c(=O)n(-c3ccc(C)cc3)c(=O)c3c2cnn3C)cc1 | inactive: 137%
O=C(Nc1ccc2nc(SCC(=O)N3CCCC3)sc2c1)c1cccc(Cl)c1 | inactive: 57%
CC(C)CCNC(=O)C1CCN(c2nc3ccc(Cl)cc3[nH]2)CC1 | inactive: 90%
COc1ccc(C)cc1NC(=O)c1ccc(=O)n(Cc2ccccc2)c1 | inactive: 89%
CCOC(=O)c1c(C)[nH]c(C)c1S(=O)(=O)N(C)CC(=O)Nc1ccc(C)c(N(C)C)c1 | inactive: 73%
CCOC(=O)c1cc2c(=O)n3ccccc3nc2n(Cc2ccco2)c1=NC(=O)c1c(F)cccc1Cl | inactive: 86%
CC1=C(C(N)=O)C(c2ccc(C)o2)C(C(N)=O)=C(C)N1 | inactive: 110%
COC(=O)c1cc2occc2n1Cc1nc(-c2cccc(Cl)c2)oc1C | inactive: 70%
CC1CC(NC(=O)c2ncn[nH]2)CC(C)(C)C1 (centres undefined) | inactive: 110%
COc1ccc(NC(=O)c2c(C)oc3ccc(O)c(CN4CCCCCC4)c23)cc1Cl | inactive: 89%
COc1ccc(/C=C/c2nc(C#N)c(NCCc3ccccc3)o2)cc1OC | inactive: 110%
COc1ccc(CCNC(=O)c2cn(C)c3ccc(S(=O)(=O)N(C)C4CCCCC4)cc3c2=O)cc1OC | inactive: 90%
CC(=O)Nc1ccc(S(=O)(=O)Nc2cc(-c3cn4ccccc4n3)ccc2C)cc1 | inactive: 71%
COc1ccc(Nc2nc3c(S(=O)(=O)c4ccccc4)nnn3c3ccsc23)cc1OC | inactive: 125%
Cc1cccc(C(=O)Nc2c(C(=O)NCc3ccc(Cl)cc3)sc3nc(C)cc(C)c23)c1 | inactive: 82%
COc1ccc(OC)c(CCNC(=O)c2cnn(-c3ccccc3Cl)c2C2CCN(C(=O)OC(C)(C)C)CC2)c1 | inactive: 78%
COc1ccccc1NC(=O)C1=C(C)Nc2nnnn2C1c1cc(Br)c(O)c(OC)c1 (centres undefined) | inactive: 74%

Compound | survival
COc1cccc(-n2c(=O)c3c(C)c(C)sc3n(CC(=O)NCc3ccccc3)c2=O)c1 | inactive: 93%
COc1ccc(-c2nsc(NC(=O)C(C)Oc3ccc(Cl)c(C)c3)n2)cc1 (centres undefined) | inactive: 67%
COc1ccc(NC(=O)c2cnc(Nc3ccc(C)c(Cl)c3)c3ccccc23)cc1OC | inactive: 87%
Cc1ccc(C)c(Cn2c(=O)cc(C)c3c(C)nn(-c4cccc(F)c4)c32)c1 | inactive: 73%
Cc1sc2ncn(CC(=O)N3CCN(c4cccc(Cl)c4)CC3)c(=O)c2c1S(=O)(=O)N1CCN(c2ncccn2)CC1 | inactive: 96%
COc1ccccc1N1CCN(S(=O)(=O)CCNC(=O)COc2ccc(C(C)C)cc2)CC1 | inactive: 91%
CCCN(CCC)CCNC(=O)c1ccc2c(c1)NC(=O)C(CS(=O)(=O)Cc1cccc(Br)c1)N2 (centres undefined) | inactive: 136%
COc1ccc(-c2nc(C)c(CCNC(=O)C(=O)Nc3cc(C)cc(C)c3)s2)cc1OC | inactive: 59%
COc1ccc(-c2nc(SCc3cc(=O)c4cc(C)ccc4[nH]3)n[nH]2)cc1 | inactive: 74%
COc1ccc(NC(=O)c2ccc3c(SCC(=O)O)c4c(nc3c2)CCC4)c(OC)c1 | inactive: 89%
CCOc1ccccc1N1CC(c2nc3ccccc3n2Cc2c(C)cc(C)cc2C)CC1=O (centres undefined) | inactive: 102%
Cc1ccc(NC(=O)Cn2nc(C)n3cccc3c2=O)c(C)c1 | inactive: 95%
CCOCCCNC(=O)C(c1ccc(OC)cc1)N(Cc1ccc2c(c1)OCO2)C(=O)c1ccccc1O (centres undefined) | inactive: 74%
Cc1ccccc1C(=O)Nc1c(C)nc(Nc2ccccc2)nc1Nc1ccccc1 | inactive: 94%
CC(=O)N1c2ccc(S(=O)(=O)NCC3CCC(C(=O)Nc4cccc(C)c4C)CC3)cc2CC1C (centres undefined) | inactive: 95%
Cc1cccc(N2CCN(C(=O)c3cc4c(=O)n(C)c5ccccc5c4s3)CC2C)c1 (centres undefined) | inactive: 61%
COc1ccc(N2CC(C(=O)NCc3nnnn3-c3ccc(C)c(C)c3)CC2=O)cc1 (centres undefined) | inactive: 88%
COc1ccc(CCNC(=O)C(=O)NCC(c2ccco2)S(=O)(=O)c2ccccc2)cc1 (centres undefined) | inactive: 72%
Cc1cccc(N2C(=O)CSC23C(=O)N(CC(=O)NCc2ccccc2Cl)c2ccccc23)c1 (centres undefined) | inactive: 135%
COc1ccccc1NC(=O)Cn1c(=O)c(CNc2ccc(C)cc2)cc2cc3c(cc21)OCCO3 | inactive: 49%
COc1ccc(-c2nnc3n2N(C(C)=O)C(c2ccc(Cl)c(Cl)c2)=C(C(C)=O)S3)cc1 | active: -3%

Compound | survival
O=C(Cn1c(SCCOc2ccc(Cl)cc2)nc2ccccc21)N1CCCCC1 | inactive: 71%
COCCCn1c(SCC(=O)N(Cc2ccco2)c2nccs2)nc2sc3c(c2c1=O)CCC3 | inactive: 87%
O=c1[nH]c(=O)n(C2CCCCC2)c(O)c1C1=Nc2ccccc2SC(c2ccc(Cl)cc2)C1 (centres undefined) | inactive: 81%
COc1ccc2cc3cc(C(=O)N4CCN(c5ccccc5F)CC4)oc3nc2c1 | inactive: 64%
O=C(NC12CC3CC(CC(C3)C1)C2)N1CCC(O)(c2ccc3c(c2)OCO3)CC1 | inactive: 99%
CC1SC2(C(=O)Nc3ccccc32)N(c2ccccc2)C1=O (centres undefined) | inactive: 99%
CCCOc1ccc(C2CC(=O)Nc3c2c(C)nn3-c2nncc(-c3cccc(OC)c3)n2)cc1OC (centres undefined) | inactive: 72%
COc1cccc(C2=CC(c3cc(Br)ccc3F)n3nnnc3N2)c1 (centres undefined) | active: -4%
O=C(CCc1ccccc1)NCc1ccc2c(c1)OCO2 | inactive: 106%
Cc1nc2c(c(C)c1CCC(=O)NCc1ccc(Cl)cc1)c(=O)n(C)c(=O)n2C | inactive: 96%
Cc1cccc(NC(=O)c2ccc3c(c2)CCN3S(=O)(=O)c2ccccc2)c1C | inactive: 84%
Cc1ccc(NC(=O)Nc2sc3nc4n(c(=O)c3c2C)CCC(C)CC4)c(Cl)c1 (centres undefined) | inactive: 136%
COc1cccc(OC)c1C(=O)Nc1nc2c(s1)CCc1ccccc1-2 | inactive: 84%
O=C1C2C3C=CC(C3)C2C(=O)N1c1ccc(Cl)cc1 (centres undefined) | inactive: 101%
COC(=O)c1ccc(NC(=O)N2CCN(Cc3cc(=O)n4nc(-c5ccc(C)cc5)sc4n3)CC2)cc1 | inactive: 68%
CC(CNC(=O)CN1C(=O)c2cccnc2Oc2ccc(Cl)cc21)c1ccccc1 (centres undefined) | inactive: 73%
COc1ccc(-c2noc(-c3ccc(N4CCN(c5ccccc5)CC4)c([N+](=O)[O-])c3)n2)cc1 | inactive: 83%
O=C(NCc1nc2ccccc2[nH]1)c1c(F)cccc1F | inactive: 70%
Cc1cccc(-n2c(C)nc3cc(C(=O)NCCC4=CCCCC4)ccc32)c1 | inactive: 73%
Cc1ccc(/C=C/c2onc(C)c2S(=O)(=O)N2CCC(C(=O)N3CCN(c4ccccc4F)CC3)CC2)cc1 | inactive: 136%
O=C(NCCN1CCOCC1)c1ccc2c(c1)OCCO2 | inactive: 89%

— PubChem BioAssay AID463173 (ICCB-Longwood Screening Facility, Harvard Medical School, 2010)
